In PubChem BioAssay AID493208 (National Center for Advancing Translational Sciences (NCATS), 2011):
The whole screen tested about 44,000 compounds, of which about 340 (0.77%) were called active. About 5% were inconclusive and are not listed. The call rests on the fitted dose curve; in most records, active means well fitted inhibition curve with a large enough effect; inconclusive means small, poorly fitted or top-dose-only effect; inactive means flat fitted curve, though single readings scatter. The list shows a part of the results.

Experiment: Acumen qHTS Assay for Inhibitors of the mTORC1 Signaling Pathway in MEF (Tsc2-/-, p53-/-) Cells: Sytravon;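 further: plate controls were DMSO for no effect and rapamycin for full effect; nearly all actives have a fitted effect of over 50% in size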
Conditions: phospho-rpS6 immunofluorescence/PI, 24 h; series mostly up to 38.3 µM; activity change, negative = inhibition: at the top concentration
Method in brief: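 Plate MEFs (Tsc2-/-, p53-/-, empty vector) in DMEM/10% FBS; after 24 h add compound, incubate 24 h at 37 degree Celsius; fix in PFA/TX-100, block, stain phospho-rpS6 and 10 uM PI; scan at 488 nm; report % positive cells.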

Activity change, negative = inhibition, inactive:
CCc1nn(CC(=O)NCCCN2CCN(C)CC2)c(=O)c2cc3occc3n12 -7.12%
CSc1ncc(C(=O)N2CCN(c3ccc(Cl)cc3)CC2)c(C)n1 0.299%
COc1ccc(C(=O)c2c(N)c(-c3nc(-c4ccccc4)cs3)c3ccccn23)cc1 -2.74%
COC(=O)c1c(NC(=O)COc2ccc(Cl)cc2C)sc2c1CCCCC2 5.41%
COc1ccc(OC)c(NC(=O)CSC2=Nc3ccccc3C3=NC(CCC(=O)NC4CCCCC4)C(=O)N23)c1 (stereo not given) -0.141%
CSc1cccc(NC(=O)CC(c2ccc(F)cc2)N2Cc3ccccc3C2=O)c1 (stereo not given) -7.93%
COc1ccc(C)cc1NC(=O)c1oc2ccc(S(=O)(=O)N3CCOCC3)cc2c1C -2.54%
Cc1nc2nc(C)c(CCC(=O)NCc3cccc(Cl)c3)c(C)n2n1 -10.2%
O=C(Cn1c(=O)n(Cc2ccco2)c(=O)c2sc3ccccc3c21)Nc1ccccc1C(F)(F)F 1.6%
CCOc1ccccc1NC(=O)c1ccc(C(=O)Nc2ccccc2OCC)cc1 2.06%
Cc1ccc(-n2nc(C)c3c(C)c(CCC(=O)NCc4ccccc4Cl)c(C)nc32)cc1 -5.98%
CC(=O)NCCNC(=O)c1ccc2c(=O)n(CCc3ccccc3)c(=O)[nH]c2c1 5.17%
COc1ccc(C2=C(C(C)=O)Sc3nnc(-c4ccccc4)n3N2C(C)=O)cc1 -0.674%
Fc1ccc(Cc2cn3cc(-c4ccc(F)cc4)nc3s2)cc1 -11.3%
COc1cc(NC(=O)c2cc3cc4cc(OC)ccc4nc3o2)cc(OC)c1 -0.534%
CCOc1cc(C2NC(=O)c3c(sc4c3CCN(C)C4)N2)ccc1OC(=O)c1ccc(F)cc1 (stereo not given) 2.55%
COc1cc(C2CC(=O)N(CC(=O)Nc3ccccc3F)c3ccccc3S2)cc(OC)c1OC (stereo not given) -2.44%
CCC(C(=O)NCCc1ccc(SC)cc1)n1nc(C)c2c(C)n(-c3ccc(C)cc3)nc2c1=O (stereo not given) -7.51%
Cc1ccc(CCNC(=O)c2ccc(CSc3nc4ccncc4n3Cc3ccc(F)cc3)cc2)cc1 0.0387%
Cc1ccc(-n2nc(CO)c(C(=O)NC(C)c3ccccc3)n2)cc1C (stereo not given) -5.36%
COC(=O)c1sc2ccccc2c1S(=O)(=O)N1CCN(c2ccc(C(C)=O)cc2)CC1 -16.1%
O=C(Nc1ccc(F)cc1F)c1cc(-c2ccc3c(c2)OCO3)on1 -10.3%
COC(=O)c1ccccc1NC(=O)CCc1c(C)nc2cc(-c3ccc(Cl)cc3)nn2c1C -6.4%
CC(=O)c1cc(-c2ccc(F)cc2)n(CCC(=O)NC2CCCCC2)c1C -0.818%
Cc1cccc(OCC(=O)Nc2cccc(-c3nc4ccccc4s3)c2)c1 -4.64%
Cc1ccc(Cl)cc1N1CCN(C(=O)c2cn(C)c3ccc(S(=O)(=O)N4CCCCC4)cc3c2=O)CC1 1.42%
CC(C)CNc1cc(NC2CCCCC2)c2c3c(onc13)-c1ccccc1C2=O -3.2%
O=S(=O)(Nc1cccc(-c2ccc(N3CCCCC3)nn2)c1)c1ccc(F)cc1F 0.26%
CSc1ccc(CCNC(=O)CCc2c(C)nc3c4cccnc4nn3c2C)cc1 -13%
O=C(CC1N=C2c3ccccc3N=C(SCc3cccc(F)c3)N2C1=O)NC1CCCCC1 (stereo not given) -0.136%
CCSc1nc2sc3c(c2c(=O)n1-c1ccc(C)cc1)CCCC3 6.32%
COc1cccc(CNCc2c(C(=O)O)c(C)n(Cc3ccc(F)cc3Cl)c2C)c1OC 0.835%
O=C(Nc1ccc(F)c(F)c1)c1ccc(F)c(S(=O)(=O)N2CCC3(CC2)OCCO3)c1 -1.39%
CCn1c(=O)n(CC2CCC(C(=O)NC(C)C)CC2)c(=O)c2sccc21 (stereo not given) -9.95%
COc1ccc(NC(=O)CSc2c(C(C)C)cnc3c2c(=O)n(C)c(=O)n3C)c(OC)c1 3.27%
COc1ccc2cc3c(N)nn(C(=O)c4ccc(F)cc4Cl)c3nc2c1 -21.8%
CCOC(=O)c1cc(CC)sc1NC(=O)COc1ccccc1C 0.857%
Cc1cc(NC(=O)CN2CCC(O)CC2)nc2c1c(=O)oc1ccccc12 -11.4%
COc1ccc(C(=O)NCC(c2ccc3c(c2)OCO3)N2CCN(C)CC2)cc1OC (stereo not given) -0.48%
CCOC(=O)c1c(C)[nH]c(C)c1S(=O)(=O)N1CCC(C(=O)Nc2ccc(OC)c(OC)c2)CC1 -2.64%
CCN1CCN(c2ncnc3c2cnn3-c2ccc(F)cc2)CC1 5.81%
COc1ccc(CC(=O)Nc2ccc(-c3nc4ccccc4s3)c(C)c2)cc1 -2.04%
COc1ccc(NC(=O)c2ccc3oc(=O)c(S(=O)(=O)c4ccc(F)cc4)cc3c2)c(OC)c1 -1.06%
CC(C)c1nc2sc3c(N4CCCCC4)ncnc3c2c2c1CCCC2 -7.46%
CCOc1ccc(-n2c(SCC(=O)c3ccccc3)nc3c([nH]c4ccccc43)c2=O)cc1 -16.6%
COC(=O)c1ccc(CSc2nc3ccncc3n2Cc2ccc(F)cc2)cc1 -8.7%
COc1ccc(C(=O)Oc2ccc(C3NC(=O)c4c(sc5c4CCN(C)C5)N3)cc2OC)cc1 (stereo not given) -19%
Cc1ccc(Cl)cc1N1CCN(C(=O)c2cc(S(=O)(=O)N3CCCCC3)cn2C)CC1 0.0245%
COCC(C)Nc1ncnc2c1cnn2-c1cccc(Cl)c1 (stereo not given) -2.01%
CCc1ccc(C(=O)c2cn(CC(=O)Nc3ccc4c(c3)OCCO4)c3ccc(C)cc3c2=O)cc1 6.57%
CCOC(=O)c1c(C)[nH]c(C)c1S(=O)(=O)NCC(=O)N1CCN(c2cc(Cl)ccc2C)CC1 -2.67%
O=C(CCSCc1ccccc1Cl)N1CCN(c2ccc(F)cc2)CC1 10.1%
CC(Oc1ccccc1)C(=O)N1CCN(Cc2cc(=O)n3nc(-c4ccccc4Cl)sc3n2)CC1 (stereo not given) 1.59%
COCc1cc(C)nc2sc3c(c12)NC(c1ccccc1C(=O)O)N(c1ccc(OC)cc1)C3=O (stereo not given) 3.72%
CC(=O)c1ccc(NC(=O)COc2ccccc2-c2nc(-c3ccccc3)no2)cc1 -4.26%
Cc1ccc(C)c(NC(=O)c2nnn(CC(=O)Nc3cccc(C)c3C)c2N)c1 -0.208%
O=c1c2c3c(sc2n(Cc2cc(=O)n4ccccc4n2)c(=O)n1-c1ccccc1)CCC3 -16.4%
O=c1cc(CN2CCN(S(=O)(=O)c3ccccc3)CC2)nc2sc(-c3ccccc3Cl)nn12 5.18%
Cc1ccc(NC(=O)C(Cc2ccccc2)NS(=O)(=O)c2cccs2)cc1Cl (stereo not given) -3.15%
O=C(CS(=O)(=O)c1nc(-c2ccc(Cl)cc2)cn1-c1ccccc1)Nc1ccc(F)cc1F -0.0758%
COc1ccccc1CNC(=O)CN1C(=O)c2cccnc2Oc2ccccc21 -1.02%
Cc1ccc(-c2noc(CSc3nnc(C)n3-c3ccc(C)cc3)n2)cc1 -18%
COc1ccc(NC(=O)CCCc2nnc3n(CCC(C)C)c(=O)c4sccc4n23)cc1Cl 2.41%
COc1ccc(OCCSc2nc3ccccc3n2CC(=O)N2CCOCC2)cc1 -0.806%
COc1ccc(/C=C/c2onc(C)c2S(=O)(=O)N2CCC(C(=O)N3CCCCC3)CC2)cc1 -6.86%
COc1ccc(-c2cc(C(C)=O)c(C)n2CCC(=O)NC2CCCCC2)cc1 -0.0164%
CCOc1ccc(CNC(=O)C2CCN(C(=O)c3sccc3-n3cccc3)CC2)cc1 0.348%
Cc1ccc(-n2c(SCCC(C)C)nc3sc4c(c3c2=O)CC(C)(C)OC4)cc1 -0.156%
CC(C)Oc1ccc(C(=O)N2CC(=O)Nc3ccc(F)cc3C2c2ccc(F)cc2)cc1 (stereo not given) -4.43%
CCOc1ccc(CNC(=O)CN2C(=O)C3CCCCN3c3ccc(C(=O)N4CCCC4)cc32)cc1 (stereo not given) 1.58%
CN(C)c1cccc(C(=O)N2CCC(c3ccncc3)CC2)c1 -8.49%
COc1cc(CNc2ccc3[nH]c(=O)[nH]c3c2)cc(Br)c1OCc1ccc(F)cc1 -20.5%
COc1ccccc1CNC(=O)c1cc2cc(C)ccc2n1C -6.56%
COCCNc1ncnc2onc(-c3ccc(F)cc3)c12 3.64%
O=C(CSc1nc(-c2ccccc2)nc2c1CCCC2)c1ccc(Cl)cc1 -12.2%
O=C(O)CCc1ccc(-c2cccs2)n1CC(=O)Nc1ccccc1C(F)(F)F 2.17%
COc1ccc(Cn2ccc3nc(C)c(C(=O)N4CCN(c5cc(C)ccc5C)CC4)cc3c2=O)cc1 0%
CCc1cccc(C)c1NC(=O)C(CC)n1ncn2c(cc3cc(C)ccc32)c1=O (stereo not given) -10.3%
CCOc1ccc(CNC(=O)c2cnc3sc(N4CCCCCC4)nn3c2=O)cc1OC -19.5%
Cc1ccc(S(=O)(=O)c2nc(S(=O)(=O)c3ccc(C)cc3)c(NC(C)C)s2)cc1 -4.36%
Cc1ccc2c(c1)CC(C)N2S(=O)(=O)c1nnc(NC(=O)C(C)C)s1 (stereo not given) 2.95%
CCCN(C(=O)c1sc2nc3n(c(=O)c2c1C)CCCC3)c1ccccc1C 8.55%
CCCNC(=O)C1CCC(Cn2c(=O)c3sccc3n(CC(=O)Nc3ccccc3C)c2=O)CC1 (stereo not given) -42%
Cc1cccc(NC(=O)C2CCN(S(=O)(=O)c3ccc4c(c3)CCCC(=O)N4)CC2)c1 -2.42%
COc1ccc(-c2cc(C(F)(F)F)nc(SCCC(=O)Nc3cccc(O)c3)n2)cc1 -12.3%
Cc1cc(=O)n(CC(=O)Nc2cccc([N+](=O)[O-])c2)c(-n2nc(C)cc2C)n1 0.178%
CC(NC(=O)c1ccc2nc(Cc3ccccc3)oc2c1)c1ccccc1 (stereo not given) -7.38%
COC(=O)c1c(NC(=O)c2cc3nc(-c4ccc(Br)cc4)cc(C(F)(F)F)n3n2)sc2c1CCCC2 0.124%
CCc1ccc(Nc2cc(C(=O)NCCCN(C)c3ccccc3)c3ccccc3n2)cc1 -3.62%
COc1ccc(OC)c(NC(=O)N2CCC(N3CCN(Cc4ccc(F)cc4)C(=O)C3=O)CC2)c1 6.23%
CCc1noc(-c2ccc(N(C)Cc3ccc(OC)cc3)c([N+](=O)[O-])c2)n1 -16.1%
CCOc1ccc(CCNC(=O)c2sc3ncccc3c2-n2c(C)ccc2C)cc1 -11.4%
COc1ccc(NC(=O)Cn2cc(C(=O)C3CCCCC3)c3ccccc32)cc1 2.42%
Cc1ccc(C)c(Nc2nc3nonc3nc2Nc2cccc(C)c2C)c1 -9.32%
COc1ccc(Cl)cc1NC(=O)N1CCC(CN2CCCCCC2)CC1 -9.64%
